Experimental data published in the supplement of paper PMC5499739.
Over roughly 16,000 sequences, “Z-score” has its median near -0.37; the highest 2% begin near 3.2. This is one part of the list.

These sequences were tested on RBM10 RRM1-ZnF (GST-tagged construct) (assay: RNAcompete 7-mer binding Z-score; higher = stronger binding preference).
Summary of the method: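 GST-tagged RBM10 constructs (20 pmol) were mixed with a designed pool of 241 399 RNAs up to 41 nt (1.5 nmol), transcribed from microarray-derived DNA templates. Mixing was in 1 ml Hepes pH 7.8 buffer with KCl, NaCl, glycerol, DTT, BSA and glutathione Sepharose beads. Binding ran 30 min at 4°C, followed by four 2-min washes at 4°C, and bound RNA was identified by microarray hybridisation. Each heptamer motif received a one-sided Z-score for enrichment across probes containing it.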

| Sequence | RNAcompete 7-mer binding Z-score |
| --- | --- |
| UUAGACA | -0.305 |
| AGGUAGA | 2.42 |
| UAAUACC | -0.681 |
| GAGUAAA | 0.566 |
| UCAGGGC | 0.966 |
| CUUAACA | -0.727 |
| CUUGAGU | -0.629 |
| AGAGUUC | -0.399 |
| UUAGAGG | 1.31 |
| UGAAUAG | 0.387 |
| UCUGUUU | -0.617 |
| GAAAGCA | 0.527 |
| GGGCGCC | 0.339 |
| GCACCGG | 0.54 |
| CCCUCUG | -0.6 |
| UUCUUGC | -0.889 |
| AGUUGCG | 0.17 |
| GCGUACG | 0.228 |
| AAUGCGC | -0.428 |
| CGUGGUA | 0.823 |
| GAAAGGU | 4.51 |
| CCUGCUC | -0.808 |
| AGGAGGG | 3.53 |

| Sequence | RNAcompete 7-mer binding Z-score |
| --- | --- |
| GCCCUAU | -0.867 |
| CAUCUAA | -0.737 |
| CUACACC | -0.558 |
| CUACCUA | -0.659 |
| GUGCGCA | 0.215 |
| GAUCCUA | -0.717 |
| GUGAAUU | 0.121 |
| CCGACUA | -0.613 |
| GGGUGAU | 3.22 |
| AGGAAAG | 2.84 |
| CGCACCA | -0.652 |
| GGUACAA | 1.25 |
| AUGGGUG | 4.03 |
| GGGAUCG | 1.97 |
| GUCUCAG | -0.457 |
| AGGAAGU | 1.06 |
| CAAAGCC | -0.863 |
| CCCUUGA | -0.837 |
| UUUUCAC | -0.88 |
| AGAGUUG | 0.768 |
| CAGUGUA | 0.0495 |
| CAUCACG | -0.47 |
| AUAGUUA | -0.321 |

| Sequence | RNAcompete 7-mer binding Z-score |
| --- | --- |
| AAAUACC | -0.795 |
| AGUUAGC | -0.181 |
| CCGUCAA | -0.607 |
| CUGGAGG | 0.988 |
| CGGCACA | 0.0495 |
| UAGCUCU | -0.477 |
| AAUCCGG | -0.314 |
| UCCUUAG | -0.785 |
| GCGUAGU | 0.082 |
| GGCUUUU | -0.535 |
| ACUGCGC | -0.594 |
| GGGUCGC | 1.14 |
| GCUAGAC | -0.305 |
| CAAUUCG | -0.591 |
| GAAACCA | -0.272 |
| AGGUACG | 0.751 |
| CCAAGUG | -0.259 |
| CACAAAC | -0.626 |
| AUGAUAC | -0.217 |
| CGCCCGA | -0.698 |
| CACCCAU | -0.72 |
| UGACCUU | -0.854 |
| GAGUAGU | 0.68 |

| Sequence | RNAcompete 7-mer binding Z-score |
| --- | --- |
| ACGUACG | 0.0593 |
| AUCUUAU | -0.863 |
| GUUUUCC | -0.681 |
| CGGGUUG | 2.79 |
| CAUCUGA | -0.756 |
| AGACUUU | -0.873 |
| GUAGCAC | -0.0252 |
| ACUUAGG | 0.257 |
| CGCUACG | -0.266 |
| ACUCCCG | -0.594 |
| GGGACUG | 2.47 |
| GCUUUAA | -0.672 |
| GUAUACC | -0.282 |
| CACGAAA | -0.454 |
| UUCUACU | -0.951 |
| GAUAUAA | 0.095 |
| GUUAUAA | -0.266 |
| CGUCGCU | -0.61 |
| GUAUUGG | 1.87 |
| AACGUCA | -0.574 |
| UUAUCUG | -0.587 |
| UCACCCG | -0.633 |
| UCAGUGU | -0.24 |

| Sequence | RNAcompete 7-mer binding Z-score |
| --- | --- |
| CUUAUGU | -0.763 |
| CGGCACC | -0.334 |
| CGAAGCA | -0.227 |
| GUUGUGA | 0.524 |
| UGUGUUA | -0.409 |
| GAAGCGA | 1.27 |
| AUCGGGA | 1.64 |
| GAUACAC | -0.327 |
| CCCACCG | -0.305 |
| UAUGAAG | 0.176 |
| CUAUAUA | -0.617 |
| AACCGUA | -0.808 |
| AUCGAUC | -0.552 |
| GUGCAGG | 2.06 |
| ACUAACA | -0.584 |
| UUUACAU | -0.701 |
| GACUCCG | -0.555 |
| AUUUUAG | -0.617 |
| UUAGAAG | 0.283 |
| GGGGGAG | 3.22 |
| GACCUUU | -1.03 |
| UACUGAC | -0.428 |
| GUGAGAA | 1.13 |

| Sequence | RNAcompete 7-mer binding Z-score |
| --- | --- |
| GAGAAUG | 1.61 |
| AGUUAGU | -0.0642 |
| UGGUAGC | 1.3 |
| AGCGGCG | 1.33 |
| UUGGAUU | 0.0885 |
| GGUACGU | 0.716 |
| AUCCAGA | -0.535 |
| AAACACG | -0.37 |
| ACAGAGU | 0.248 |
| ACAAUUU | -0.772 |
| UUAGCCU | -0.896 |
| UCAUUGC | -0.847 |
| ACCCGAG | -0.389 |
| UUCAACU | -0.847 |
| CACAGCU | -0.532 |
| UGCUACC | -0.604 |
| CAGGAAG | 1.72 |
| AAUUGUU | -0.435 |
| ACAUUGC | -0.72 |
| UCUUUAA | -0.847 |
| ACCAUAG | -0.724 |
| CGUGGCU | -0.171 |
| AUCCUAG | -0.698 |

| Sequence | RNAcompete 7-mer binding Z-score |
| --- | --- |
| CGAUUGG | 0.949 |
| AUGCAGC | -0.106 |
| AUCCAAA | -0.857 |
| ACCUAGA | -0.503 |
| CGCCCAA | -0.685 |
| GGUAUCU | 0.000789 |
| CGGCCUG | -0.23 |
| CGCGUUG | -0.214 |
| AGCUGUG | 0.3 |
| AAGUCCU | -0.652 |
| GCAAUGC | -0.357 |
| AGGUAGG | 3.53 |
| ACUCCUC | -0.75 |
| AUGGAGC | 1.55 |
| AGAUCCA | -0.688 |
| CAUAAGG | 0.335 |
| UUUGAUC | -0.743 |
| UCGUGAG | 0.251 |
| ACUGUAA | -0.49 |
| AGCCGAG | -0.256 |
| AGUGAUU | 0.000789 |
| AACAGUG | 0.332 |
| UAUAAAA | -0.535 |

| Sequence | RNAcompete 7-mer binding Z-score |
| --- | --- |
| GAGCCCG | -0.422 |
| UUUUCGC | -0.909 |
| CCUAGGU | 0.03 |
| GCAUGCG | 0.0138 |
| CGCGACA | -0.509 |
| ACUGAGA | -0.214 |
| ACUCUUC | -0.909 |
| UAUCCCU | -0.863 |
| UUAAAAG | -0.233 |
| AUAUUCU | -0.74 |
| AUCUGGC | -0.724 |
| GGAUACG | 1.91 |
| AAAUGUU | -0.321 |
| CCCGAAC | -0.545 |
| CCGUCCG | -0.542 |
| GUCAGAU | -0.197 |
| UAACCAG | -0.386 |
| AUCUCCC | -0.802 |
| GCAUACA | -0.126 |
| UGGCAUG | 0.904 |
| UUGGCAC | -0.249 |
| GUUGUUA | 0.0755 |
| UCUGCGG | -0.136 |
